Measured values taken from a collection of fitness landscapes (doi:10.1016/j.celrep.2020.107928).
Whole data set: some 81,000 sequences, median “one-hybrid fitness for binding NBS DNA” near -0.1, cut for the highest 2% near 0.36. The list shows a part of the results.

B1: Caulobacter ParB omega fusion; a variant is named by its letters at X, in order, B8GW30 (parent)
chain: MESVVVGEPGMSEGRRGLGRGLSALLGEVDAAPAQAPGEQLGGSREAPIEILQRNPDQPRRTFREEDLEDLSNSIREKGVLQPILVRPSPDTAGEYQIVAGERAWRAAQRAGLKTVPIMVRELDDLAVLEIGIIENVQRADLNVLEEALSYKVLMEKFERTQENIAQTIGKSXSHVANXMRLLXLPDEVQSYLVSGELTAXHARAIAAAADPVALAKQIIEGGLSVRETEALARKAPNLSAGKSKGGRPPRVKDTDTQALESDLSSVLGLDVSIDHRGSTGTLTITYATLEQLDDLCNRLTRGI

Variants of: B1
Test: one-hybrid fitness for binding NBS DNA (the Noc-binding site; scaled: cognate 1, non-cognate 0); higher = stronger binding
Conditions: with NBS DNA site
Summary of the method: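 Selection: bacterial one-hybrid in E. coli USO, HIS3 reporter with the site 19 bp from the promoter, 48 hours at 37°C on M9-minus-histidine plus 0.1 mM IPTG and 5 mM 3-AT. Libraries were Caulobacter ParB with four randomised specificity codons, sequenced on Illumina before and after selection. Fitness is the rescaled log change in variant-to-wild-type read ratio, anchored to the cognate and non-cognate sites.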

Variant | one-hybrid fitness for binding NBS DNA
DKTH | ≤ 0.2
IRSK | ≤ 0.2
SGPA | ≤ 0.2
HLLC | ≤ 0.2
AISS | ≤ 0.2
KTLT | ≤ 0.2
WIAA | ≤ 0.2
KTHM | ≤ 0.2
PSMT | ≤ 0.2
MQGR | ≤ 0.2
ANAY | ≤ 0.2
LQCT | ≤ 0.2
ELYL | ≤ 0.2
IQHT | ≤ 0.2
QSLC | ≤ 0.2
MGKR | ≤ 0.2
YNQW | ≤ 0.2
WVPR | ≤ 0.2
SKRR | ≤ 0.2
HGLR | ≤ 0.2
RKDE | ≤ 0.2
LGDG | ≤ 0.2
PQEV | ≤ 0.2
NTLA | ≤ 0.2
DNYA | ≤ 0.2

Variant | one-hybrid fitness for binding NBS DNA
RVHA | ≤ 0.2
TNRR | ≤ 0.2
PIWC | ≤ 0.2
HPWV | ≤ 0.2
TSAK | ≤ 0.2
TKTE | ≤ 0.2
TLLA | ≤ 0.2
QCNQ | 0.222
LGQR | ≤ 0.2
GTRM | ≤ 0.2
IFTL | ≤ 0.2
ITWS | ≤ 0.2
RFFY | ≤ 0.2
DTPT | ≤ 0.2
SQVV | ≤ 0.2
RATV | ≤ 0.2
RLWT | 0.23
VWVR | ≤ 0.2
FQGT | ≤ 0.2
HPGE | ≤ 0.2
VPYW | ≤ 0.2
KRPI | ≤ 0.2
GKDF | ≤ 0.2
VPRM | ≤ 0.2
LIHN | ≤ 0.2

Variant | one-hybrid fitness for binding NBS DNA
KSSC | ≤ 0.2
RMLQ | ≤ 0.2
EHAP | ≤ 0.2
RLPG | ≤ 0.2
TAVA | ≤ 0.2
NHLS | ≤ 0.2
ILTV | ≤ 0.2
FPGG | ≤ 0.2
PHYA | ≤ 0.2
YNCG | ≤ 0.2
VHCS | ≤ 0.2
NLFQ | ≤ 0.2
DWHR | ≤ 0.2
FRHW | ≤ 0.2
VMTR | ≤ 0.2
VDSG | ≤ 0.2
SVHT | ≤ 0.2
RIDT | ≤ 0.2
SPHD | ≤ 0.2
SLNM | ≤ 0.2
ACNC | ≤ 0.2
ICGT | ≤ 0.2
CYTG | ≤ 0.2
GVHT | ≤ 0.2
FKSS | ≤ 0.2

Variant | one-hybrid fitness for binding NBS DNA
LNSW | ≤ 0.2
LQVC | ≤ 0.2
EPQM | ≤ 0.2
TSWQ | ≤ 0.2
PESC | ≤ 0.2
HYFS | ≤ 0.2
RFKN | ≤ 0.2
HTST | ≤ 0.2
FCAS | ≤ 0.2
QQCG | ≤ 0.2
QNQT | ≤ 0.2
LVAM | ≤ 0.2
CVEC | ≤ 0.2
VDWK | ≤ 0.2
TIIY | ≤ 0.2
NMPV | ≤ 0.2
VARH | ≤ 0.2
PMNL | ≤ 0.2
GSWL | ≤ 0.2
NWEG | ≤ 0.2
MATL | ≤ 0.2
IDNM | ≤ 0.2
YALA | ≤ 0.2
CPRG | ≤ 0.2
SVAC | ≤ 0.2

Variant | one-hybrid fitness for binding NBS DNA
QTDE | ≤ 0.2
MRHY | ≤ 0.2
QVHI | ≤ 0.2
PSQM | ≤ 0.2
REES | ≤ 0.2
TEPG | ≤ 0.2
SVTT | ≤ 0.2
PQIV | ≤ 0.2
PSSW | ≤ 0.2
DLSC | ≤ 0.2
NPLR | ≤ 0.2
QASM | ≤ 0.2
LYSM | ≤ 0.2
QVGS | 0.299
SIAS | ≤ 0.2
RGHT | ≤ 0.2
RDGG | ≤ 0.2
HTKG | ≤ 0.2
VYNC | ≤ 0.2
SMPD | ≤ 0.2
LSGH | ≤ 0.2
ILTS | ≤ 0.2
QVQY | ≤ 0.2
RQET | 0.214
NEPW | ≤ 0.2

Variant | one-hybrid fitness for binding NBS DNA
RMLH | ≤ 0.2
VRPF | ≤ 0.2
LSNS | ≤ 0.2
PQYG | ≤ 0.2
VPPV | ≤ 0.2
FYRG | ≤ 0.2
HDFT | ≤ 0.2
SMRE | ≤ 0.2
LASD | ≤ 0.2
ILST | ≤ 0.2
PFCS | ≤ 0.2
QQHK | ≤ 0.2
WTKI | ≤ 0.2
TRLR | 0.276
SFMF | ≤ 0.2
VKTF | ≤ 0.2
HAVD | ≤ 0.2
YEKG | ≤ 0.2
YCHM | ≤ 0.2
RPIN | ≤ 0.2
KVAN | ≤ 0.2
AIKA | ≤ 0.2
KAME | ≤ 0.2
YKLS | ≤ 0.2
KCWS | ≤ 0.2

Variant | one-hybrid fitness for binding NBS DNA
FAPG | ≤ 0.2
ALYT | ≤ 0.2
HGVM | ≤ 0.2
MGGF | ≤ 0.2
DTKT | ≤ 0.2
MDNL | ≤ 0.2
NYRA | ≤ 0.2
PGQG | ≤ 0.2
HMLV | ≤ 0.2
ETSL | ≤ 0.2
TLVF | ≤ 0.2
RMVF | ≤ 0.2
KISC | ≤ 0.2
TNHR | ≤ 0.2
MLRL | ≤ 0.2
LCSP | ≤ 0.2
AEKS | ≤ 0.2
RNCV | ≤ 0.2
CCKY | ≤ 0.2
CNHT | ≤ 0.2
QPYP | ≤ 0.2
WPPM | ≤ 0.2
SGWW | ≤ 0.2
WTNS | ≤ 0.2
SACR | ≤ 0.2

Variant | one-hybrid fitness for binding NBS DNA
KAKL | ≤ 0.2
SRGR | ≤ 0.2
KRKV | 0.302
VNCI | ≤ 0.2
WLSR | ≤ 0.2
TSHL | ≤ 0.2
PETR | ≤ 0.2
FLCR | ≤ 0.2
TRFW | ≤ 0.2
PPIP | ≤ 0.2
FHDS | ≤ 0.2
EGGL | ≤ 0.2
CLLV | ≤ 0.2
WLQT | ≤ 0.2
SYQQ | ≤ 0.2
QMMT | 0.378
ANPF | ≤ 0.2
YCWG | ≤ 0.2
YRLG | ≤ 0.2
RVRH | 0.304
